In all, about 2,300 sequences were measured (“median log2 fold change of GCK-ALFA target abundance (FLAG IP / Myc IP barcode read proportion)”: median about 0.095, lowest 2% from about -0.47 on). The list shows a part of the results.
B1: LC3A_147_446 (protein)
chain: YRVEVEIDLLLKNEPEVAKELVEKLKETLEELGVEAEIEVEIEKIDENTVYAEIRIIAEVETLEEAEEVRDALIDTVDEFEEKNKDKILGSLISYEIEEV
B2: LC3A_free_39_2277 (protein)
chain: SMEEHEEVLERLEELAEEMSPEAAANLKELVEIFKDDTEALRRLAEALEEAKEEGADMTEVTKEALEIAKQGKERGLSKEEIAEEVLEEIRDHINLIPLD
B3: LC3A_free_39_2225 (protein)
chain: SEEELEKLIKEVAKESGVDYEELKKKIEEIKKVAGLSNEEILKIVEAILEAVKAGADAKEIVEEALKLAKELKKEGKSPEEILKEILELIEDYRNLVPLD
B4: LC3A_3_1681 (protein)
chain: MDELVKEVLEEAKKNGLSEEALEALKELLEELKKRGFLNAIKTLLEKLKELKDIPSEILKDMFEDLLYLLKNEDLSEEEIVEKIKEEARIAKSEKEIIEL
B5: LC3A_28_1157 (protein)
chain: SKIEEEIARAKAELDAAIAAGEDAVITIKVTGDATEEDIEKLIKALEELAAKGEKHGVTAIIIDVDSKVKQEHIDKLADAAEEIEKKYPNITIIIALSDE
B6: LC3A_28_898 (protein)
chain: MSALESAEAALAAVRAAVAAGDQAPLVLEVKAPSTEEDTEKLIELLEEIAREASQLTGVTIVIDIDESVSEENQQKLIDKAEELEKKYPNVTVIIALPES
B7: LC3A_28_869 (protein)
chain: SAIEEAVKAAREELEKQAAQGEDGVVTVKVTKETSLEEAKELLERVAKVAKEVAEKTGLKVTIVIDDDRDQESADELADLAEKLEKEDPKITVIIALSEE
B8: LC3A_132_298 (protein)
chain: DEEKAKEILEKVKEKVEEAKENIDNEEKVEELLEEIEELIKEAEEKLSPELLAKVMEEVAELLDELSQKFLEAGKEHLAMLADGLAIEAESLALRAEKEI
B9: LC3A_3_1372 (protein)
chain: MEEEIEETLEYLREKGHSEETIEAVREALEALKEAGYEEALKTFIELMKRLAHLPDELLLWFAEDVLRAVTEEDLSEEELIEFIKREARIAESEAEIIEL
B10: LC3A_13_349 (protein)
chain: SVTITAETAEELLKKGTAALDANPGQTINITVTVRDEAEADAVAEAIKELIDKAIEKGNSLNVTIKGKRDLVLYAAVEVGAHIAEILGKADVNVSTEEVE
B11: LC3A_132_277 (protein)
chain: DEEKKKRAIEKVRELARKAKEAIDDPEKVKELLEEMRKYLKEVEKTESPEVAAAVAEEAERELDELARALEEAGLEDLALEADSLAIEAASLAIRAEKKI
B12: LC3A_28_863 (protein)
chain: SETRESIERARKELEEARAAGEPRVITVRVTEDVTEEEVDEVIALIDEVAAASKEVPGLALVIDVDGKVDPEKLQRIMDAAEAAEAANPGLTVIFALDEE
B13: LC3A_147_480 (protein)
chain: AEVDIDVLVKNEETADKLIAMAEELKKELEAKGIEVEVEIKREKLDPNTWYVEIRFKIKAPTEEEEKAAAQEIVDRFDEFIEENKDEVLASIISVEFIER
B14: LC3A_132_276 (protein)
chain: EEEKTKEAIKKVEELAEEAKKNIDDEEKVKELLEEIEEFLKKVAETESPKVAAAVAEKAAEELDKLARELEKAGKEELALEADSLAIEAASLSLRAEKKL
B15: LC3A_free_46_2319 (protein)
chain: YKAEIDIDFFGVDEETAKALVEELEKKIKEIAKKYGLKVKIEVEVEKNEDGTYYVRVKITLEGEDKEKLEAAVNEIIDAADEIAEKYGASYVISYEIEEK
B16: LC3A_3_1635 (protein)
chain: MDEEVEETLELLREAGASEETLEAFRETAELLKERGYYEALKTLIEETRELLDLPSELLLSFFEEVLEYLKTNDANEEEVIEEIKRIATITRNEGEIIEL
B17: LC3A_45_1958 (protein)
chain: MYLATVDVLVPAEDFDAAAATLRAAVAEVSAEMGVDASIDPAALAAAREEAKATGEALLTVTVRADDKQTALDAAVRISDRLEEALGTRVASIISVEEIP
B18: LC3A_free_0_2117 (protein)
chain: KKTVVEVVIILDESVDEETAEEIYKELKEKAEELAKEKGGELKSSLSKSDGRYIITIEITLPTEDIDLALEVERELVEMAEEILKKHGVEATIYSSVYLE
B19: LC3A_28_1153 (protein)
chain: SAGVEAAKAQIEKDAEKDKNEEEVYLNVTITSTMTVEEAKEIMEHVEEVVEKLKDKKKIYVLVTFEEPVSQEVLDTVLEMAEEIEKKYPNVSVIIALPED
B20: LC3A_28_1199 (protein)
chain: SAADATIAAIKAQAAKALAEGDGTVITVNITSTMTQADIDAINATIKEEAAKLADVKSVSIVINVEAGVPQENITALAETGDEIEKKYPNITVIIALDED
B21: LC3A_free_39_2178 (protein)
chain: SEEELEKAKAELLKLAEEEGEETLKIVEEILKLLEGNLELVKLLVEGLKKIKEEGGDVKETVEEILEVIKELKAKGKSMEEILEKVKEIIEDHLNLIPLE
B22: LC3A_132_293 (protein)
chain: QEKKKEELLKEIKELIEKAKENIDDEELVRKYLEEIEELIKKAAEELTPEQLAELMKETAELLDELSRKFLEAGKEELAEEADGLRIEAESLALKAEEKL
B23: LC3A_13_334 (protein)
chain: TIKLEVETPEALRREAKAAIEAHPGETIEITVTVKTEEDVDAFAEALEEIIDLAIEKGNKLNITIKGKRDNVLELSLLVGAHIAERIDEADVTVSEEILP
B24: LC3A_59_2033 (protein)
chain: DEEIEKYVEKLREAKDDDEKMAEIILEALLKFKNDPEKLEKLKEAIIKTLVELGLLSEELAKELMEEAEKIVEEEKDYEEALKKILEELKIARNEEEIEE
B25: LC3A_147_520 (protein)
chain: ATYELTVSIDVLGDTELAKEEAEELAEELEELGFEVELEIEESVDEEGTPFVDITITAIAETEEELEKAKKLASEMAGEALDRIAAAGGAAIASISVEKL
B26: LC3A_28_1178 (protein)
chain: NHIKESSEKAIEEAKKAAKEKIPTVVTIEVPGNATQEDTELVKETIREIAEILKGIKGSAIIIDVESGVSQENLDLLMETAEEVEKKYPDISVIFALDEE
B27: LC3A_free_46_2428 (protein)
chain: YLVEVDIDLLHEDKEVLEKAVEEIKEKLKEIAEEYNAEIEIEVELSKLEDGSYFAEIKVKIKVPTKEIAEEVADDIIDSIDEIAEKYGVSYIISVEIKEE
B28: LC3A_28_1140 (protein)
chain: SALVEAAKAQIEADAEADKDEPEVLLRVTITSEMTVEQAREIMDHVEEVVEKLKDKEKIYIVVDATEPISQEVLDEIVERLEEIEKKYPNVSSIIALPED
B29: LC3A_132_304 (protein)
chain: EEKLAKELIKKAKEALKILKENPEEVEKVLKLLEEIKKLLEKLKKEVSPELAAKTFDEVMDILIELSRIAAKKGREEVAEEAFALAAEAAQLKSEAEKKI

target: MAP1LC3A, Q9H492; assay: median log2 fold change of GCK-ALFA target abundance (FLAG IP / Myc IP barcode read proportion) (log2 ratio); each designed protein is fused to an ALFA-tag nanobody in HEK293 cells to bring the named protein to FLAG-tagged glucokinase (GCK); Myc marks an untargeted standard; higher = target protein stabilised (more abundant); conditions: target protein: 3xFLAG-MCP-GCK-ALFA reporter; HEK293 landing pad (RPLP)
Outline: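 Sequencing of reverse-transcribed, amplified circular RNA barcodes from anti-FLAG and anti-Myc immunoprecipitates provided the readout for an ALFA-nanobody-fused binder library recombined into HEK293 landing-pad cells. Those cells were induced with 2 μg mL^−1 doxycycline, transfected with a plasmid expressing a FLAG-tagged target and a Myc-tagged standard, and lysed after 48 h. Target abundance is the per-binder median log2 ratio of FLAG to Myc barcode read proportions. Only barcodes at a proportion of ≥10^−7 in both replicates and binders with ≥3 barcodes per replicate were kept, with a 10^−6 pseudocount added before the two replicates were pooled.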

Binder	median log2 fold change
B1	-0.092
B2	0.22
B3	0.123
B4	0.312
B5	-0.0736
B6	0.201
B7	-0.37
B8	-0.0134
B9	0.0414
B10	0.0758
B11	0.167
B12	-0.0658
B13	0.0243
B14	0.0719
B15	0.0759
B16	0.106
B17	-0.0695
B18	-0.244
B19	-0.206
B20	0.247
B21	0.172
B22	0.303
B23	0.0285
B24	0.246
B25	-0.41
B26	-0.252
B27	-0.217
B28	-0.0164
B29	0.287
